# In PubChem BioAssay AID1645882 (National Center for Advancing Translational Sciences (NCATS), 2021):
# Several values for one entry are separate records, joined by “and”; a condition that tells them apart may be missing. Identical values can stand only once. In all, about 16,000 compounds went through this assay and about 120 (0.75%) were called active. This list was built around the results that the source calls inconclusive (neither active nor inactive); the mix of calls is not that of the screen. Calls come from the whole dose curve; as a rule, active = well fitted inhibition curve with a large enough effect; inconclusive = small, poorly fitted or top-dose-only effect; inactive = no such curve, though single readings can be large or run the other way. A potency beside an inconclusive call is a rough fit, not a confirmed value. Some compounds were tested as several samples or in several runs, with calls that do not always agree.
# Target: Rap guanine nucleotide exchange factor 3 (Homo sapiens) (UniProt O95398)
# Chain of UniProt O95398 (O95398 whole entry, looked up): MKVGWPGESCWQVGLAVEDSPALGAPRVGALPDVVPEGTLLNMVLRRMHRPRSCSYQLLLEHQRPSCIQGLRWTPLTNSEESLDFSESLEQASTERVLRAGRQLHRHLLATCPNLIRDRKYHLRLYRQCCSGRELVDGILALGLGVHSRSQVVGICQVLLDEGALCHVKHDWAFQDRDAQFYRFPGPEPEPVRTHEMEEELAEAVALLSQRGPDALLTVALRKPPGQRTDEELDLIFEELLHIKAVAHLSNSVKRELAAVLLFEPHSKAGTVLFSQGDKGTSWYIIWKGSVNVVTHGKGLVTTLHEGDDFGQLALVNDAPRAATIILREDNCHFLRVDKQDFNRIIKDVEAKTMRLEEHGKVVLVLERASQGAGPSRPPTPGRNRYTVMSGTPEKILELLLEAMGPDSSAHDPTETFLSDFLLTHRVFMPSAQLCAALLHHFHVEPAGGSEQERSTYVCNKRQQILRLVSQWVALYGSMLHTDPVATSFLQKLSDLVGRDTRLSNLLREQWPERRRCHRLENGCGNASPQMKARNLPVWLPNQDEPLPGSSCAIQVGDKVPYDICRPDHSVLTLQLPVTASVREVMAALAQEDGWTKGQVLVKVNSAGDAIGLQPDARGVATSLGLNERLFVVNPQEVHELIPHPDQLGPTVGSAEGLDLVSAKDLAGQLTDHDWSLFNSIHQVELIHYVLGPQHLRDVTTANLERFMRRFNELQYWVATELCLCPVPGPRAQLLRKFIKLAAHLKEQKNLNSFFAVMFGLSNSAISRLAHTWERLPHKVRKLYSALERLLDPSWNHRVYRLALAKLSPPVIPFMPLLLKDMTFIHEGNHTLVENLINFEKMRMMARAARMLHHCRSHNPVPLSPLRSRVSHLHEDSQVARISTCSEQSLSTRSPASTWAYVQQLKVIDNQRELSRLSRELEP
# Test: Validation qHTS for antagonist of cAMP-regulated guanine nucleotide exchange factor 3 (EPAC1); note: nearly all actives have a fitted effect of over 75% in size
# Conditions: EPAC1 Rap1B-BODIPY-GDP exchange, fluorescence; activity change, negative = inhibition: at 150 µM (top of the series)
# How it was run: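 EPAC1 (100 nM) mixed with 250 nM RAP1B-BODIPY-GDP and 50 uM GDP; compounds in concentration series, 5 min at room temperature. Fluorescence (ex 480/em 540 nm) read every 5 min for 30 min; normalized to ATA control and DMSO.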
# Potency is the fitted concentration of half-maximal effect; tags give direction and shape of the fitted curve.
SMILES,Potency,"activity change, negative = inhibition"
CCOC(=O)C1=C(C)NC(C)=C(C(=O)OCC)C1c1ccccc1C=CC(=O)OC(C)(C)C,"inconclusive: 39.8 µM [inhibitor, partial curve]",–
CC(C)=CCc1c2c(c(O)c3c(=O)c(O)c(-c4ccccc4)oc13)C=CC(C)(C)O2,–,inactive: 13.9%
CCCCC[C@H]1CN(C2CCCCC2)C(=O)[C@@H]1CC(=O)NCc1ccc(OC)cc1,"inconclusive: 63.1 µM [inhibitor, partial curve, poor fit]",–
Cc1ccccc1-c1nccc(Nc2ccc(F)cc2)n1,"inconclusive: 112 µM [inhibitor, single point]",–
C=C1C(=O)OC2C[C@@]3(C)CCCC(=C)[C@@H]3CC12 (stereo not given in full),"inconclusive: 28.2 µM [inhibitor, full curve, poor fit]",–
COc1ccc(-c2nc3cnc(N4CCNCC4)nc3n(Cc3cccs3)c2=O)cc1,"inconclusive: 89.1 µM [inhibitor, partial curve, poor fit]",–
CCOC(=O)C1=C(C)NC(C)=C(C(=O)OC)C1c1cccc([N+](=O)[O-])c1 (stereo not given),"inconclusive: 39.8 µM [inhibitor, partial curve]",–
CC(C)c1nc(CN(C)C(=O)N[C@H](C(=O)N[C@@H](Cc2ccccc2)C[C@H](O)[C@H](Cc2ccccc2)NC(=O)OCc2cncs2)C(C)C)cs1,"inconclusive: 112 µM [inhibitor, partial curve, poor fit]",–
COc1cc2c(cc1OC)-c1cc3nc4ccccc4nc3n1C(C)(C)C2,"inconclusive: 2.82 µM [inhibitor, partial curve, poor fit]",–
COc1ccc(CNc2ccnc(-c3ccc4c(c3)OCO4)n2)c(OC)c1,"inconclusive: 79.4 µM [inhibitor, partial curve]",–
Cc1cccc2c3c(ccc12)C1=C(C(=O)C3=O)C(C)CO1 (stereo not given),"inconclusive: 126 µM [inhibitor, single point]",–
CCCCCCCCCc1ccc(OCCOCCO)cc1,"inconclusive: 112 µM [inhibitor, single point]",–
COC(=O)C(C)c1ccc(C(=O)c2cccs2)cc1 (stereo not given),"inconclusive: 89.1 µM [inhibitor, partial curve, poor fit]",–
CCC1CN(CCNC(=O)c2cc(C(C)C)nn2C)Cc2cc(OC)ccc2O1 (stereo not given),–,inactive: 4.19%
CCCCCCCC/C=C\CCCCCCCC(=O)OC[C@@H](O)[C@H]1OC[C@H](O)[C@H]1O,"inconclusive: 112 µM [inhibitor, single point]",–
O=S(c1cc(Cl)cc(Cl)c1O)c1cc(Cl)cc(Cl)c1O,"inconclusive: 79.4 µM [inhibitor, partial curve, poor fit]",–
CCn1nc(C)cc1C(=O)N1CCC2(CC1)c1ccccc1[C@@H](NC(=O)c1cccnc1)[C@@H]2O,–,inactive: 13%
COC(=O)/C(C)=C/CC12OC(C)(C)C3CC(C=C4C(=O)c5cc6c(c(CCC(C)(C)Cl)c5OC431)OC1(C)CCC(=C(C)C)C6C1)C2=O (stereo not given),–,inactive: 5.06%
Cc1cnc(CNc2ncnc3ccc(-c4cccc(NS(C)(=O)=O)c4)cc23)cn1,"inconclusive: 50.1 µM [inhibitor, single point]",–
OCC1O[C@H]([S-])[C@H](O)[C@@H](O)[C@@H]1O.[Au+] (stereo not given in full),"inconclusive: 35.5 µM [inhibitor, single point]",–

SMILES,Potency,"activity change, negative = inhibition"
CCC(C)(C)C(=O)O[C@@H]1C[C@@H](C)C=C2C=C[C@H](C)[C@H](CC[C@@H]3C[C@@H](O)CC(=O)O3)[C@H]21,"inconclusive: 31.6 µM [inhibitor, full curve, poor fit]",–
O=C(O)c1c(Cl)c(Cl)c(Cl)c(Cl)c1-c1c2cc(I)c(=O)c(I)c-2oc2c(I)c(O)c(I)cc12,"inconclusive: 39.8 µM [inhibitor, full curve, poor fit]",–
COC(=O)C[C@H]1c2ccccc2S(=O)(=O)N1Cc1ccc(OC)cc1,–,inactive: 8.68%
COc1ccc(-c2nc3cnc(N4CCNCC4)nc3n(Cc3cccc(OC)c3)c2=O)cc1,"inconclusive: 100 µM [inhibitor, single point]",–
Nc1cc(-c2ccncc2)c[nH]c1=O,"inconclusive: 70.8 µM [inhibitor, partial curve]",–
CN(CCOc1ccc(CC2SC(=O)NC2=O)cc1)c1ccccn1 (stereo not given),–,inactive: 16.9%
CC1(C)S[C@@H]2[C@H](NC(=O)C(c3ccccc3)S(=O)(=O)O)C(=O)N2[C@H]1C(=O)O (stereo not given in full),"inconclusive: 56.2 µM [inhibitor, partial curve]",–
N#C/C(=C\c1ccc(O)c(O)c1)C(=O)NCCCNC(=O)/C(C#N)=C/c1ccc(O)c(O)c1,"inconclusive: 14.1 µM [inhibitor, single point]",–
Cc1cc(O)c(C=O)c2c1C(=O)Oc1c(COC(=O)/C=C/C(=O)O)c(O)c(C(=O)O)c(C)c1O2,"inconclusive: 100 µM [inhibitor, partial curve, poor fit]",–
O=C(c1nc2ncccn2n1)N1CCOc2ccc(C(O)C(c3ccccc3)c3ccccc3)cc2C1 (stereo not given),–,inactive: -1.68%
C[C@@H](NC(=O)/C(C#N)=C/c1ccc(O)c(O)c1)c1ccccc1,"inconclusive: 100 µM [inhibitor, partial curve]",–
COc1ccc2[nH]cc(CCO)c2c1,–,inactive: 4.85%
Cc1cc(O)c2c(c1)O[C@@]1(C)CC[C@H]3C(C)(C)CCCC34CO[C@@H]2[C@H]41 (stereo not given in full),"inconclusive: 79.4 µM [inhibitor, partial curve]",–
CC(C)(c1ccc(O)cc1)c1ccc(O)cc1,"inconclusive: 100 µM [inhibitor, partial curve]",–
CC1(C)NC(=O)N(c2ccc([N+](=O)[O-])c(C(F)(F)F)c2)C1=O,"inconclusive: 1.26 µM [inhibitor, full curve, poor fit]",–
CCCCCCc1ccc(O)cc1O,"inconclusive: 12.6 µM [inhibitor, partial curve, poor fit] and inconclusive: 44.7 µM [inhibitor, full curve, poor fit]",–
Cc1occc1C(=O)Nc1cccc(-c2nc(CNC(=O)c3cc(-c4ccccc4)n[nH]3)c(C)o2)c1,"inconclusive: 28.2 µM [inhibitor, partial curve]",–
COc1cccc(-c2nc(N3CCNCC3)c3ccccc3n2)c1,–,inactive: 17.1%
CCCCCCCCCCC/C=C\C(C)(C)/C=C\CCCC(=O)O,"inconclusive: 39.8 µM [inhibitor, single point]",–
COc1cc2cc3c4c(cc(OC)c(OC)c4c2cc1OC)CCN3C,"inconclusive: 25.1 µM [inhibitor, full curve, poor fit]",–

SMILES,Potency,"activity change, negative = inhibition"
O=S1(=O)CCO[C@H]2Cc3ccccc3[C@H]2N1Cc1ccccc1F,"inconclusive: 100 µM [inhibitor, partial curve, poor fit]",–
CC(=O)/C=C/c1ccc2c(c1)S(=O)(=O)N(C1CCCC1)[C@H]2CC(C)=O,active: 56.2 µM,–
COc1cc(O)cc(/C=C/c2ccccc2)c1,"inconclusive: 89.1 µM [inhibitor, partial curve]",–
CC(=O)c1cc2c(cc1O)OC(C)(C)C=C2,"inconclusive: 126 µM [inhibitor, single point]",–
CCCC1([C@H](O)C/C=C/[C@H]2[C@H](O)CC(=O)[C@@H]2CCCCCCC(=O)OC)CCC1,"inconclusive: 28.2 µM [inhibitor, full curve]",–
O=C1OC2(c3ccc(O)cc3Oc3cc(O)ccc32)c2ccccc21,"inconclusive: 10 µM [inhibitor, full curve, poor fit]",–
CCCCCCCCCCCCCCC(C(=O)OC)C(O)(CC(=O)OC)C(=O)OC (stereo not given),"inconclusive: 35.5 µM [inhibitor, full curve, poor fit]",–
Cc1cccc(CN2CCc3nnc(C(C)NC(=O)C4CCOCC4)n3CC2)c1 (stereo not given),–,inactive: 12%
O=[N+]([O-])c1ccc(Cn2cc(-c3cccc(C(F)(F)F)c3)nn2)cc1,"inconclusive: 44.7 µM [inhibitor, partial curve]",–
COC(=O)C1=C(C)NC(C)=C(C(=O)O[C@H]2CCN(Cc3ccccc3)C2)[C@H]1c1cccc([N+](=O)[O-])c1,"inconclusive: 112 µM [inhibitor, single point]",–
CC(Oc1ccccc1)C(=O)NCC1Cc2cc(F)cc(-c3ccccn3)c2O1 (stereo not given),–,inactive: 0.154%
CN(CCc1ccc(Cl)c(Cl)c1)CCN1CCCC1,"inconclusive: 31.6 µM [inhibitor, single point]",–
COc1cc(-c2ccc(N=Nc3ccc4c(S(=O)(=O)O)cc(S(=O)(=O)O)c(N)c4c3O)c(OC)c2)ccc1N=Nc1ccc2c(S(=O)(=O)O)cc(S(=O)(=O)O)c(N)c2c1O,active: 31.6 µM,–
CC1CC[C@@]2(C(=O)O)CCC3(C)C(=CCC4[C@]5(C)CC(O)C(O)[C@](C)(CO)C5C(O)C[C@@]43C)C2C1C (stereo not given in full),–,inactive: -17.8%
O=C(c1cccc(F)c1)N1CCC2(CCCN(c3ccncc3)C2)CC1,–,inactive: 6.3%
C#C[C@]1(O)CC[C@H]2[C@@H]3CCc4cc(OC5CCCC5)ccc4[C@H]3CC[C@@]21C,"inconclusive: 25.1 µM [inhibitor, full curve]",–
Cc1cc(C)n(-c2cccc(C(=O)NCC3Cc4cc(Cl)cc(-c5cnccn5)c4O3)c2)n1 (stereo not given),"inconclusive: 28.2 µM [inhibitor, single point]",–
C=C1c2c(Cl)ccc(O)c2C(O)=C2C(=O)[C@]3(O)C(O)=C(C(N)=O)C(=O)C(N(C)C)C3C(O)C12 (stereo not given in full),–,inactive: -0.56%
Cc1cc(O)c2c(c1O)C(=O)C(O)=C(O)C2=O,"inconclusive: 63.1 µM [inhibitor, partial curve]",–
O=C(Oc1cc(OC(=O)c2ccccc2)c2c(c1)OC(c1ccc(OC(=O)c3ccccc3)c(OC(=O)c3ccccc3)c1)[C@@H](OC(=O)c1ccccc1)C2)c1ccccc1 (stereo not given in full),–,inactive: 5.96%
